According to the supplement of paper PMC8948288:
The sequences are guide strands of siRNAs; only the seed at positions 2 to 7 varies.

Tests used:
[1] = test system: H4; experiment: cell viability relative to siNT1 (ATP content); H4 human neuroglioma and GL261 mouse glioma; higher = less toxic; details: siRNA concentration 10 nM; 96 h; human
[2] = test system: GL261; experiment: as above; details: siRNA concentration 25 nM; 96 h; mouse
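Note: cells reverse transfected with siRNA duplexes via lipid reagent, ATP read by luminescence, triplicate wells, values scaled to mean viability with non-targeting control siNT1.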

Sequence | cell viability [1] [%] | cell viability [2] [%]
UGUAGUCACAUGUAAACCA | 23.7 | 18.9
UGUAGUGACAUGUAAACCA | 93.2 | 42.2
UGUAGUUACAUGUAAACCA | 28.4 | 22.8
UGUAUAAACAUGUAAACCA | 79.9 | 74.2
UGUAUACACAUGUAAACCA | 92.7 | 68.9
UGUAUAGACAUGUAAACCA | 106 | 59.9
UGUAUAUACAUGUAAACCA | 66 | 65.8
UGUAUCAACAUGUAAACCA | 104 | 58.6
UGUAUCCACAUGUAAACCA | 30.9 | 21.5
UGUAUCGACAUGUAAACCA | 81.3 | 64
UGUAUCUACAUGUAAACCA | 44.9 | 41.4
UGUAUGAACAUGUAAACCA | 85.6 | 61.2
UGUAUGCACAUGUAAACCA | 32.6 | 46.8
UGUAUGGACAUGUAAACCA | 39 | 54.9
UGUAUGUACAUGUAAACCA | 44.2 | 25.1
UGUAUUAACAUGUAAACCA | 89.3 | 70.9
UGUAUUCACAUGUAAACCA | 38.9 | 35.1
UGUAUUGACAUGUAAACCA | 79.2 | 66.4
UGUAUUUACAUGUAAACCA | 50.6 | 61.9
UGUCAAAACAUGUAAACCA | 81.1 | 46
UGUCAACACAUGUAAACCA | 72.6 | 11
UGUCAAGACAUGUAAACCA | 95 | 55.8
UGUCAAUACAUGUAAACCA | 104 | 40.8

Sequence | cell viability [1] [%] | cell viability [2] [%]
UGUCACAACAUGUAAACCA | 50.9 | 15.7
UGUCACCACAUGUAAACCA | 42.4 | 3.74
UGUCACGACAUGUAAACCA | 58.5 | 18.6
UGUCACUACAUGUAAACCA | 55 | 16.5
UGUCAGAACAUGUAAACCA | 115 | 28.6
UGUCAGCACAUGUAAACCA | 44.1 | 10.2
UGUCAGGACAUGUAAACCA | 82.5 | 18.4
UGUCAGUACAUGUAAACCA | 72.9 | 6.85
UGUCAUAACAUGUAAACCA | 103 | 26.2
UGUCAUCACAUGUAAACCA | 32.1 | 9.91
UGUCAUGACAUGUAAACCA | 101 | 13.2
UGUCAUUACAUGUAAACCA | 74.9 | 20.1
UGUCCAAACAUGUAAACCA | 69.9 | 30.3
UGUCCACACAUGUAAACCA | 52.4 | 21.3
UGUCCAGACAUGUAAACCA | 56 | 16.2
UGUCCAUACAUGUAAACCA | 76.4 | 11.5
UGUCCCAACAUGUAAACCA | 54.9 | 10.9
UGUCCCCACAUGUAAACCA | 28.1 | 26.3
UGUCCCGACAUGUAAACCA | 54 | 17.6
UGUCCCUACAUGUAAACCA | 24.4 | 6.63
UGUCCGAACAUGUAAACCA | 97.6 | 16
UGUCCGCACAUGUAAACCA | 55.7 | 4.64
UGUCCGGACAUGUAAACCA | 36.8 | 20.1

Sequence | cell viability [1] [%] | cell viability [2] [%]
UGUCCGUACAUGUAAACCA | 60.2 | 21.7
UGUCCUAACAUGUAAACCA | 63.3 | 54
UGUCCUCACAUGUAAACCA | 11.7 | 5.32
UGUCCUGACAUGUAAACCA | 51.7 | 23
UGUCCUUACAUGUAAACCA | 37.5 | 9.3
UGUCGAAACAUGUAAACCA | 58.7 | 53.8
UGUCGACACAUGUAAACCA | 52.8 | 26
UGUCGAGACAUGUAAACCA | 93.1 | 32.6
UGUCGAUACAUGUAAACCA | 73.6 | 38.9
UGUCGCAACAUGUAAACCA | 101 | 22.6
UGUCGCCACAUGUAAACCA | 32.7 | 5.91
UGUCGCGACAUGUAAACCA | 93.2 | 31.9
UGUCGCUACAUGUAAACCA | 23.3 | 13.1
UGUCGGAACAUGUAAACCA | 81.4 | 34.2
UGUCGGCACAUGUAAACCA | 83.3 | 20.1
UGUCGGGACAUGUAAACCA | 53.4 | 16.8
UGUCGGUACAUGUAAACCA | 65.4 | 22
UGUCGUAACAUGUAAACCA | 94.7 | 41
UGUCGUCACAUGUAAACCA | 80.8 | 16.8
UGUCGUGACAUGUAAACCA | 105 | 39.3
UGUCGUUACAUGUAAACCA | 83.3 | 17.2
UGUCUAAACAUGUAAACCA | 92.7 | 53.3
UGUCUACACAUGUAAACCA | 60.8 | 32.5

Sequence | cell viability [1] [%] | cell viability [2] [%]
UGUCUAGACAUGUAAACCA | 89.6 | 47.7
UGUCUAUACAUGUAAACCA | 63.4 | 30.3
UGUCUCAACAUGUAAACCA | 63.7 | 22.5
UGUCUCCACAUGUAAACCA | 22.9 | 6.28
UGUCUCGACAUGUAAACCA | 60.8 | 10.4
UGUCUCUACAUGUAAACCA | 37.9 | 8.43
UGUCUGAACAUGUAAACCA | 56.7 | 28.5
UGUCUGCACAUGUAAACCA | 20.5 | 7.87
UGUCUGGACAUGUAAACCA | 15.1 | 10.1
UGUCUGUACAUGUAAACCA | 59.9 | 21.6
UGUCUUAACAUGUAAACCA | 96.1 | 38.4
UGUCUUCACAUGUAAACCA | 34.4 | 7.83
UGUCUUGACAUGUAAACCA | 57.1 | 24.5
UGUCUUUACAUGUAAACCA | 52.1 | 37.2
UGUGAAAACAUGUAAACCA | 82.3 | 66.3
UGUGAACACAUGUAAACCA | 63.5 | 37.1
UGUGAAGACAUGUAAACCA | 75.1 | 70.5
UGUGAAUACAUGUAAACCA | 67.8 | 41
UGUGACAACAUGUAAACCA | 62.1 | 52.4
UGUGACCACAUGUAAACCA | 20.6 | 19
UGUGACGACAUGUAAACCA | 86.1 | 43.5
